{"source": "paper PMC6919601", "about": "“Identification of Plasmodium dipeptidyl aminopeptidase allosteric inhibitors by high throughput screening” (PLoS ONE, 2019)", "note": "About 230 (0.21%) of roughly 110,000 compounds showed an effect of 50% or more. The list shows a part of the results.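 Further: 30 min substrate incubation versus DMSO and 10 µM JCP410 controls.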"}
{"molecular_target": "DPAP1 (Plasmodium falciparum, UniProt Q8IIJ9)", "sequence (Q8IIJ9 whole entry, looked up)": "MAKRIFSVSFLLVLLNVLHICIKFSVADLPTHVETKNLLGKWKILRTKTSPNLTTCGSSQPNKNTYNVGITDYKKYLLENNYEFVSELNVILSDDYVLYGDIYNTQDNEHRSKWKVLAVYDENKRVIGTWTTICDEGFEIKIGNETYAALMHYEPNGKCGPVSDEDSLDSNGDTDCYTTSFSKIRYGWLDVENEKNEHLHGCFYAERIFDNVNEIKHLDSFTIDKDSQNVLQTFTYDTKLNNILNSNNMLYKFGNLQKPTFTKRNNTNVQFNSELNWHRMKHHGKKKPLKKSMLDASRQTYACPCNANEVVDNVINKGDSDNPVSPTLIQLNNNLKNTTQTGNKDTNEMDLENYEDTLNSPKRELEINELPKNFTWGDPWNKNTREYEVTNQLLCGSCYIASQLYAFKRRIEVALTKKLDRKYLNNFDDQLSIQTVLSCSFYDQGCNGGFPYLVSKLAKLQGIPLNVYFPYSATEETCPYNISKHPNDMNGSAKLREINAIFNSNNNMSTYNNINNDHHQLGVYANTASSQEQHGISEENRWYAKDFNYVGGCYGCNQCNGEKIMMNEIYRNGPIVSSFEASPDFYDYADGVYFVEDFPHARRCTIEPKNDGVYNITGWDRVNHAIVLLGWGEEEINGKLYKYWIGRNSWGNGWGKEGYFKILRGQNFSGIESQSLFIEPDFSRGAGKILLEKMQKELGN", "test": "primary screen, percent inhibition; read by cleavage of a fluorogenic dipeptide substrate; higher = more effect of the substance", "parameters": "species or system P. falciparum D10 trophozoite lysates; single well", "units": {"% Inhibition @ 10 uM": "%"}}
{"smiles": "CCC1CCc2c(sc(N)c2C(=O)OC)C1", "note": "(stereo not shown)", "% Inhibition @ 10 uM": 7.56}
{"smiles": "Cc1cc(C)c(C#N)c(SCC(=O)Nc2nonc2-n2cccc2)n1", "% Inhibition @ 10 uM": 1.32}
{"smiles": "CC1CCN(S(=O)(=O)c2ccc3ncc(C(=O)N4CCCCCC4)c(O)c3c2)CC1", "% Inhibition @ 10 uM": 1.16}
{"smiles": "CCN(CC)CCCNC(=O)C1CCN(c2cc(C)nc3c(-c4ccc(Cl)cc4)c(C)nn23)CC1", "% Inhibition @ 10 uM": -0.138}
{"smiles": "Cc1c(C(=O)OC2CCCC2C)[nH]c2c1C(=O)CCC2", "note": "(stereo not shown)", "% Inhibition @ 10 uM": 1.76}
{"smiles": "Cc1nc2nc(-c3ccccc3)cn2nc1C", "% Inhibition @ 10 uM": 1.42}
{"smiles": "COC1(c2ccc(C)cc2)C(=O)C(c2ccccc2)=C1OC(C)C", "note": "(stereo not shown)", "% Inhibition @ 10 uM": -1.22}
{"smiles": "N#CCNC(=O)C(Cc1cccc(-c2ccccc2)c1)CS(=O)(=O)Cc1ccccc1", "note": "(stereo not shown)", "% Inhibition @ 10 uM": -0.214}
{"smiles": "CCCCCCNC(=O)N[C@@H](CC1CCCCC1)C(=O)NCC#N", "% Inhibition @ 10 uM": 2.86}
{"smiles": "Cc1c(Cl)cccc1NC1=NC(=O)/C(=C2/C(=O)N(C)c3ccccc32)S1", "% Inhibition @ 10 uM": 21.7}
{"smiles": "CC(C)C(O)(C#CCN1CCOCC1)C(C)C", "% Inhibition @ 10 uM": -0.591}
{"smiles": "Cc1cc2nc(SCC(=O)c3ccccc3)[nH]c2cc1C", "% Inhibition @ 10 uM": 4.55}
{"smiles": "COc1cc(O)ccc1C1CC(=O)Nc2c1c(=O)nc(SC)n2C", "note": "(stereo not shown)", "% Inhibition @ 10 uM": 0.596}
{"smiles": "O=C(CSc1nc2nncc-2c(O)n1-c1ccccc1)Nc1cccc(C(F)(F)F)c1", "% Inhibition @ 10 uM": -3.85}
{"smiles": "O=C(NC1(C(F)(F)F)NC(=O)N(C2CCCCC2)C1=O)C1CCCCC1", "note": "(stereo not shown)", "% Inhibition @ 10 uM": -6.64}
{"smiles": "CCCCOc1ccc(C2C(C#N)=C(N)Oc3[nH]nc(C)c32)cc1OC", "note": "(stereo not shown)", "% Inhibition @ 10 uM": -0.941}
{"smiles": "CC(C)CCNC(=O)Cc1c(C(=O)O)[nH]c2ccccc12", "% Inhibition @ 10 uM": 4.14}
{"smiles": "COc1ccc(CC(=O)Nc2ccc(S(=O)(=O)Nc3nc(C)cc(C)n3)cc2)cc1", "% Inhibition @ 10 uM": 0.0451}
{"smiles": "Cc1ccc(Nc2nc(-c3ccc(S(=O)(=O)N4CCCC4)cc3)cs2)cc1", "% Inhibition @ 10 uM": 0.98}
{"smiles": "N#CC1=C(SCC(N)=O)NC(=O)CC1c1cccc2ccccc12", "note": "(stereo not shown)", "% Inhibition @ 10 uM": 2.58}
{"smiles": "CCOC(=O)c1[nH]nc2c1COc1ccccc1-2", "% Inhibition @ 10 uM": 4.33}
{"smiles": "COc1ccc(OC)c(NC(=O)COc2cccc(C)c2)c1", "% Inhibition @ 10 uM": 4.49}
{"smiles": "CCN1CCN(C(=O)c2cnc(SC)nc2-c2ccccc2)CC1", "% Inhibition @ 10 uM": 6.76}
{"smiles": "O=C(NCc1ccccc1)/C(=C\\c1ccc(Cl)cc1)NC(=O)c1ccccc1", "% Inhibition @ 10 uM": 2.01}
{"smiles": "CCOc1ccccc1NC(=O)c1ccco1", "% Inhibition @ 10 uM": 2.65}
{"smiles": "Clc1ccc2nc(Cl)c3nnnn3c2c1", "% Inhibition @ 10 uM": 5.43}
{"smiles": "CC(NC(=O)c1sc2nc(N)c(C#N)cc2c1N)C12CC3CC(CC(C3)C1)C2", "note": "(stereo not shown)", "% Inhibition @ 10 uM": 7.39}
{"smiles": "CCOc1ccccc1C(=O)NCCC(C)C", "% Inhibition @ 10 uM": -1.95}
